From PubChem BioAssay AID1347430 (National Center for Advancing Translational Sciences (NCATS), 2020)
Values joined by “and” are separate entries in the source; they are usually repeats but may differ in a detail not shown here. Equal values may be shown once. Hit rate of the full screen: of about 91,000 compounds, about 130 (0.14%) were called active. Inconclusive means that the source gave no clear call. Such entries were picked first, then a sample of the others. The call rests on the fitted dose curve; in most records, active means well fitted inhibition curve with a large enough effect; inconclusive means small, poorly fitted or top-dose-only effect; inactive means flat fitted curve, though single readings scatter. A potency beside an inconclusive call is a rough fit, not a confirmed value.

tested on: Uracil-DNA glycosylase; assay: Primary qHTS assay for inhibitors of Activation Induced Cytidine Deaminase (AID): UDG Counterscreen signal; conditions: FRET deamination/UDG coupled assay, UDG read, 4 h; series mostly up to 115 µM; further: nearly all actives have a fitted effect of over 65% in size
Potency means the concentration at half of the fitted maximal effect; tags describe the fitted curve by direction and shape.

Structure (SMILES) | Potency
CCCNC(=O)c1c(-n2cnnn2)sc2c1CCC2 | inactive
Cc1cccc(Nc2c(-c3ccsc3)nc3nc(C)cc(C)n23)c1 | inconclusive: 100 µM [inhibitor, single point]
CC(C)CN(C(=O)CN1c2ccccc2CC1C)c1c(N)n(Cc2ccccc2)c(=O)[nH]c1=O (configuration not stated) | inactive
COc1ccc(CCNC(=O)C2CCN(Cc3nc(-c4ccc(OC)c(OC)c4)oc3C)CC2)cc1OC | inconclusive: 89.1 µM [inhibitor, single point]
CCOc1ccc(/C=C/C(=O)c2cccc(C#N)c2)cc1OC | inactive
Cc1ccc(OCc2ccc(-c3nc(C#N)c(N4CCC(C(N)=O)CC4)o3)o2)cc1C | inconclusive: 89.1 µM [inhibitor, single point]
NC(=O)c1nn(CC(=O)NC2CCCCCC2)c(=O)c2ccccc12 | inactive
COc1ccc(Br)cc1/C=C/C(=O)OC1CCCCC1=O (configuration not stated) | inactive
CCN(CC)C(=O)c1sc(NC(=O)C2c3ccccc3Oc3ccccc32)c(C(=O)OC(C)C)c1C | inconclusive: 89.1 µM [inhibitor, partial curve, poor fit]
O=C(CSCc1ccc(F)cc1)N1CCN(c2ccccc2)CC1 | inconclusive: 89.1 µM [inhibitor, single point]
CCOc1ccccc1NC(=O)COc1cccc2c(=O)n(CCOC)ccc12 | inconclusive: 100 µM [inhibitor, single point]
Cc1cc(N2CCN(C)CC2)nc2ccc(NC(=O)Nc3ccccc3)cc12 | inconclusive: 11.2 µM [inhibitor, full curve]
CCOC(=O)c1cc2c(=O)n3ccccc3nc2n(CC(C)C)c1=NC(=O)COc1ccc(Cl)cc1 | inconclusive: 100 µM [inhibitor, single point]
Cc1cc(C)c(NC(=O)Cn2nnc(-c3nc(-c4ccc(F)cc4)no3)c2N)c(C)c1 | inactive
CCOC(=O)c1c(C)sc2c1OC(N)=C(C#N)C21C(=O)N(Cc2ccccc2F)c2ccccc21 (configuration not stated) | inconclusive: 31.6 µM [inhibitor, partial curve, poor fit]
COc1ccc(NC(=O)C(Cc2c[nH]c3ccccc23)NC(=O)OC(C)(C)C)cc1 (configuration not stated) | inconclusive: 89.1 µM [inhibitor, partial curve, poor fit]
CN(Cc1ccccc1)c1nnc(NC(=O)Nc2cccc(Br)c2)s1 | inconclusive: 22.4 µM [inhibitor, full curve, poor fit]
CN(Cc1ccccc1)C(=O)COC(=O)c1ccc2ccccc2n1 | inconclusive: 89.1 µM [inhibitor, partial curve, poor fit]
COc1ccc(C2=C(Nc3ccc(Br)c(C)c3)c3ccccc3C2=O)cc1 | inconclusive: 89.1 µM [inhibitor, partial curve, poor fit]
CC(C)Nc1ccc(-c2nc(-c3ccncc3)no2)cc1[N+](=O)[O-] | inconclusive: 79.4 µM [inhibitor, partial curve, poor fit]
CCN1CCC(NC(=O)C2CCN(S(=O)(=O)c3ccccc3F)CC2)CC1 | inactive

Structure (SMILES) | Potency
COCCn1ccc2c(OCC(=O)Nc3c(C)cc(C)cc3C)cccc2c1=O | inconclusive: 100 µM [inhibitor, single point]
COc1ccc2c(CC(=O)OCc3cc(Cl)c4c(c3)OCCO4)coc2c1 | inactive
COc1ccc(-n2ccnc(NCc3cccs3)c2=O)cc1OC | inconclusive: 89.1 µM [inhibitor, single point]
COc1ccccc1-c1nnc(SCCOc2ccccc2C)o1 | inconclusive: 14.1 µM [inhibitor, partial curve, poor fit]
CCOC(=O)c1cc(-c2ccc(OC)c(S(=O)(=O)Nc3ccc(OC)cc3OC)c2)on1 | inconclusive: 89.1 µM [inhibitor, single point]
CCN1CCN(CCNC(=O)C2CCN(c3nnc(-n4c(C)ccc4C)s3)CC2)CC1 | inactive
CN(Cc1ccsc1)C(=O)CCc1cccs1 | inactive
CCN(CC)S(=O)(=O)c1cc(-c2nnc(Nc3ccc(OC)c(C(N)=O)c3)c3ccccc23)ccc1C | inconclusive: 79.4 µM [inhibitor, partial curve, poor fit]
Cc1ccccc1Cn1c(=O)n(CCc2ccccc2)c(=O)c2c(C)c(C)sc21 | inconclusive: 100 µM [inhibitor, single point]
COc1cc(OC)c(C2Nc3ccccc3-c3nnc(SCc4ccccc4)nc3O2)cc1OC (configuration not stated) | inconclusive: 79.4 µM [inhibitor, partial curve, poor fit]
Cc1nc(-c2ccc(Cl)cc2)sc1CCNC(=O)c1ccc(C(F)(F)F)cc1 | inactive
CCOC(=O)c1ccc(NC(=O)CC(c2ccc(OC)c(OC)c2)N2Cc3ccccc3C2=O)cc1 (configuration not stated) | inconclusive: 89.1 µM [inhibitor, partial curve, poor fit]
CCc1ccc(-c2nc(CN3CCCC(C(=O)N4CCN(c5cc(Cl)ccc5C)CC4)C3)c(C)o2)cc1 (configuration not stated) | inconclusive: 79.4 µM [inhibitor, partial curve, poor fit]
CCOC(=O)N1CCc2c(sc(NCc3ccc(OC)c(OC)c3OC)c2C(=O)Nc2ccc(OC)cc2OC)C1 | inconclusive: 11.2 µM [inhibitor, partial curve, poor fit]
CC(C)(C)OC(=O)N1CCC(c2c(C(=O)NCc3cccs3)cnn2-c2ccc(F)cc2F)CC1 | inconclusive: 89.1 µM [inhibitor, single point]
CCOC(=O)C(NC(=O)COc1c(C)cc(C)cc1C)C(=O)OCC | inactive
CCOC(=O)c1ccc(N2C(=O)c3n[nH]c(-c4cccs4)c3C2c2ccc(C(C)C)cc2)cc1 (configuration not stated) | inconclusive: 63.1 µM [inhibitor, partial curve, poor fit]
Cc1ccc(OCCCn2c(CCNC(=O)C3CCCCC3)nc3ccccc32)c(C)c1 | inconclusive: 89.1 µM [inhibitor, single point]
CNC(=O)NC(NC(=O)c1ccccc1)(C(F)(F)F)C(F)(F)F | inactive
Cc1ccc(S(=O)(=O)c2nc(-c3cccc(C)c3)oc2N2CCCCC2)cc1 | inconclusive: 100 µM [inhibitor, partial curve, poor fit]
COc1ccc(-c2cn3nc(N4CCCC(C(=O)NCc5ccccc5C)C4)sc3n2)cc1 (configuration not stated) | inconclusive: 89.1 µM [inhibitor, single point]

Structure (SMILES) | Potency
COC(=O)c1ccc2c(c1)N(CC(=O)Nc1cccc(C(F)(F)F)c1)C(=O)c1ccccc1S2 | inactive
CCOc1ccc(-c2nn(-c3ccccc3)cc2C2NC(=O)NC(C)=C2C(=O)OC(C)C)cc1C (configuration not stated) | inactive and inconclusive: 50.1 µM [inhibitor, partial curve, poor fit]
COc1cccc(-c2nc(CS(=O)(=O)CC(=O)NCCc3ccc(OC)c(OC)c3)c(C)o2)c1 | inconclusive: 89.1 µM [inhibitor, single point]
Cc1ccc(-n2c(=O)c3c(cnn3C)n(CC(=O)Nc3c(C)cccc3C)c2=O)cc1 | inconclusive: 100 µM [inhibitor, single point]
C=CCNC(=O)COC(=O)c1cc(-c2ccc(C)o2)nc2ccccc12 | inactive
COc1ccccc1NC(=O)Cn1c(=O)n(-c2cccc(Cl)c2)c(=O)c2c1c1cc(C)ccc1n2C | inconclusive: 100 µM [inhibitor, single point]
CN1CCc2nc3sc(C(=O)Nc4cccc(C#N)c4)c(N)c3cc2C1 | inconclusive: 89.1 µM [inhibitor, partial curve, poor fit]
COc1cc(C(=O)Nc2cccc(Cl)c2N2CCCC2)cc(OC)c1OC | inconclusive: 89.1 µM [inhibitor, single point]
CC(=O)c1ccc(NC(=O)CCCc2nc(-c3cccc(C)c3)no2)cc1 | inconclusive: 89.1 µM [inhibitor, partial curve, poor fit]
CCOC(=O)c1sc(Nc2ccccc2)nc1C(F)(F)F | inactive
COC(=O)c1cc(-c2c(C)oc3cc(OC)ccc3c2=O)c(C)o1 | inconclusive: 89.1 µM [inhibitor, single point]
Cc1ccc(CSc2ccc3nnc(CCNS(=O)(=O)c4ccc(C)cc4)n3n2)cc1 | inconclusive: 50.1 µM [inhibitor, partial curve, poor fit]
CNC(=O)CSc1cc(-c2ccccc2)c2ccc(OC)cc2n1 | inactive
Cc1ccc(NC(=O)c2cc(S(=O)(=O)N3CCCc4ccccc43)ccc2F)cc1F | inconclusive: 14.1 µM [inhibitor, full curve, poor fit]
Cc1cccc(OCCSc2nc3ccc(NC(=O)c4cccs4)cc3s2)c1 | inconclusive: 79.4 µM [inhibitor, partial curve, poor fit]
CCOC(=O)CSc1nc(-c2ccccc2)cc(C(F)(F)F)c1C#N | inconclusive: 89.1 µM [inhibitor, single point]
COc1cc(C(=O)Nc2nc3c(s2)Cc2c(Br)ccc(OC)c2-3)cc(OC)c1OC | inconclusive: 89.1 µM [inhibitor, partial curve, poor fit]
CCCCN(c1ccccc1)S(=O)(=O)c1cc2c3c(c1)C(C)C(=O)N3CCC2 (configuration not stated) | inconclusive: 89.1 µM [inhibitor, single point]
Cc1nc(-c2ccncc2)[nH]c(=O)c1CC(=O)N(C)C(C)C(C)(C)C (configuration not stated) | inactive
CCCCN(CC)C(=O)Cn1cc2c(n1)-c1c(oc(C(=O)N3CCCC3)c1C)CC2 | inconclusive: 28.2 µM [inhibitor, full curve, poor fit]
